The inconclusive results got no clear call from the source; some entries with a clear call stand among them for comparison. Potencies of inconclusive entries are left out as doubtful fits. Activity calls are given as the source filed them. Calls follow the shape of the dose curve; as a rule, active = well fitted inhibition curve with a large enough effect; inconclusive = small, poorly fitted or top-dose-only effect; inactive = flat fitted curve, though single readings scatter.
Molecular target: Aldehyde dehydrogenase, mitochondrial (Homo sapiens) (UniProt P05091)
Test: qHTS for Inhibitors of the Aldehyde Dehydrogenase Family (ALDH2) Primary screen (AID 2061308); also: nearly all actives have a fitted effect of over 55% in size;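 as to activity change, negative = inhibition: plate controls were vehicle for no effect and reference inhibitor for full effect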
Details: ALDH2 enzyme inhibition qHTS, 1536-well; series mostly up to 56 µM; activity change, negative = inhibition: at the top concentration
Potency is read from the fitted curve at half-maximal effect; tags tell the direction and shape of the fitted curve.

| SMILES | Potency | activity change, negative = inhibition |
| --- | --- | --- |
| CC[C@H](C)/C=C(C)/C=C/C(=O)Cc1cc(O)c(C)c(O)c1C=O | inconclusive [inhibitor, partial curve, poor fit] |  |
| COc1ccc(Cn2c(C)nnc2-c2cnn(C)c2N)cc1OC | inconclusive [inhibitor, full curve, poor fit] |  |
| Cc1noc(=O)c2ccc(NC(=O)C(O)(CC(C)(C)c3cccc4c3OCC4)C(F)(F)F)cc12 (stereo not given) |  | inactive: 0.622% |
| CS(=O)(=O)Nc1cccc(-c2cc(F)c(S(=O)(=O)N3CCN(S(=O)(=O)c4ccc5c(c4)OCCO5)CC3)cc2F)c1 | inconclusive [inhibitor, single point] |  |
| C=C1CC[C@@H]2[C@](C)(CO[C@@H]3O[C@H](CO)[C@@H](O)[C@H](O)[C@H]3O)[C@H](O)CC[C@@]2(C)[C@@H]1C/C=C1/C(=O)OC[C@H]1O |  | inactive: 15.5% [at 28 µM] |
| O=C1CCc2cc([S+](=O)([O-])Nc3ccc(Cl)c(Cl)c3)c(NCCCO)cc2N1 | inconclusive [inhibitor, partial curve, poor fit] |  |
| O=C1CCCC2=C1C1(CCOCC1)N=C(Nc1nc3ccccc3o1)N2 | inconclusive [inhibitor, single point] |  |
| Cc1nc(CN(C)c2ncnc3cc(-c4ccc5c(c4)OCO5)ccc23)cs1 | inconclusive [inhibitor, partial curve] |  |
| O=C(NCCCCCCCCNC(=O)C(Cl)Cl)C(Cl)Cl | inconclusive [inhibitor, full curve] |  |
| CN(C)S(=O)(=O)c1ccc(-c2nc(NCc3ccc(-c4ccnc(C(F)(F)F)c4)cc3)c3ccccc3n2)cc1 |  | inactive: 2.04% |

Source: PubChem BioAssay (NCATS)
